Assay results taken from PubChem BioAssay AID938 (National Center for Advancing Translational Sciences (NCATS), 2007).
Screen size: about 73,000 compounds; about 1,800 (2.5%) were called active. Inconclusive means that the source gave no clear call. Such entries were picked first, then a sample of the others. Calls come from the whole dose curve; as a rule, active = well fitted activation curve with a large enough effect; inconclusive = small, poorly fitted or top-dose-only effect; inactive = no such curve, though single readings can be large or run the other way. No potency is given beside an inconclusive call; the fits are too rough.

assay: qHTS Assay for Agonists of the Thyroid Stimulating Hormone Receptor: Activators of Intracellular cAMP Concentrations in Parental HEK 293; details: parental HEK293 CNG cAMP sensor, membrane potential fluorescence; activation: at 57.1 µM (top of the series) unless noted; note: nearly all actives have a fitted effect of over 55% in size; for activation: % of control where 0% means no effect
Outline: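 Parental HEK 293 cells stably expressing a cAMP-gated CNG channel were loaded with membrane potential dye containing 100 uM RO 20-1724 for 60 min. Compound added for 30 min; depolarization read as fluorescence intensity at 590 nm.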
Potency is the fitted concentration of half-maximal effect; tags give direction and shape of the fitted curve.

Compound | activation | Potency
Cn1cnnc1SCC(=O)c1ccc2c(c1)CCCC2 | inactive: 18.4% | 
COc1ccccc1CNC(=O)CCN1C(=O)COc2ccc(C)cc21 |  | inconclusive [activator, partial curve]
O=C(NC1CCCC1)c1cnn2c(C(F)(F)F)cc(-c3ccco3)nc12 |  | inconclusive [activator, partial curve]
O=C(Nc1nccs1)c1ccc(S(=O)(=O)N2CCCCC2)cc1 |  | inconclusive [activator, full curve, poor fit]
CCCCCc1nc2c(=O)n(C)c3ccccc3c2o1 |  | inconclusive [activator, single point]
Cc1cc(OCc2ccc(F)cc2)nc(-c2ccccc2O)n1 | inactive: 26.3% | 
C=C(C)C(O)/C=C/c1cccc(OC)c1 (stereo not given) | inactive: 1.91% [at 11.4 µM] | 
CCOC(=O)N1CCN(Cc2cc(=O)oc3ccc(Cl)cc23)CC1 |  | inconclusive [activator, single point]
CC(=O)C1=C(O)C=C(c2ccco2)CC1c1ccco1 (stereo not given) |  | active: 15.8 µM
CC1(C)[C@@H]2CC[C@@]1(C)C(=O)C2 | inactive: 27.8% | 
CN(C(=O)COC(=O)C1CCN(S(=O)(=O)c2cccs2)CC1)C1CCS(=O)(=O)C1 (stereo not given) | inactive: 3.4% | 
CCC(C)Sc1nc2c(c(=O)[nH]c(=O)n2C)n1CCc1ccccc1 (stereo not given) |  | active: 31.6 µM
COc1cccc(C2=NOC(C(=O)NCc3ccccc3)C2)c1 (stereo not given) |  | inconclusive [activator, single point]
Cc1occc1-c1nnc(SCC(=O)NC(C)(C)C)n1C(C)c1ccccc1 (stereo not given) |  | inconclusive [activator, partial curve]
C=Cc1c(C)c2cc3[nH]c(cc4nc(cc5nc(cc1[nH]2)C(C)=C5CCC(=O)O)C(CCC(=O)O)=C4C)c(C)c3C=C | inactive: -12.4% | 
Nc1nc(Cl)nc2c1ncn2[C@@H]1O[C@@H](CO)[C@@H](O)[C@H]1O |  | active: 7.94 µM
Cn1c(=O)c2c(SCc3ccccn3)nc(-c3ccccc3)nc2n(C)c1=O |  | inconclusive [activator, single point]
COC(=O)CSc1nsc(SCC(=O)OC)c1C#N |  | inconclusive [activator, single point]
Cc1cnc(CNc2ncncc2-c2ccoc2)cn1 |  | inconclusive [activator, single point]
C=C(C)CSC1=C(C#N)C(c2ccccc2Cl)CC(=O)N1 (stereo not given) | inactive: 8.6% | 
CCc1ccc2c(CN(CC)Cc3nc4ccccc4c(=O)[nH]3)cc(=O)oc2c1 |  | inconclusive [activator, single point]
C=CCn1c(SCC(=O)NC(=O)NC2CCCC2)nnc1C1CCCCC1 |  | inconclusive [activator, single point]
CCOCCCNC(=O)Cc1cc(=O)[nH]c(=O)[nH]1 |  | inconclusive [activator, single point]
O=C(NCCCN1CCN(c2ccccc2F)CC1)C1CCN(S(=O)(=O)N2CCOCC2)CC1 |  | inconclusive [activator, single point]
COc1ccccc1-c1nccc(N2CCN(C)CC2)n1 | inactive: 28.2% | 

Compound | activation | Potency
COC(=O)[C@H](C)[C@@H]1C[C@@]1(C)[C@@H](NC(=O)OCc1ccccc1)c1ccccc1 |  | active: 15.8 µM
COc1ccc(OC)c(NC(=O)CSc2nc3cccnc3n2C)c1 |  | inconclusive [activator, single point]
Cc1ccc(-n2ncc3c(NCCCn4ccnc4)ncnc32)c(C)c1 |  | active: 1.58 µM
Cc1noc(C)c1CSc1nc2ccccc2c(=O)n1-c1ccccc1 |  | active: 10 µM
COCCN1CCN(c2c(C)c(C)nc3cc(-c4cccc(OC)c4)nn23)CC1 | inactive: -0.094% | 
Cc1ccc(SC/C(O)=C(\C#N)c2nc3ccccc3s2)cc1 |  | inconclusive [activator, partial curve]
CCc1ccccc1S(=O)(=O)Cc1ccc(C(=O)N2CCN(c3ccccn3)CC2)o1 |  | inconclusive [activator, single point]
Cn1c(=O)c2c(nc(N3CCCCC3)n2CCSc2nc3ccccc3s2)n(C)c1=O |  | inconclusive [activator, partial curve]
COc1nnc(-c2ccc(C)c(S(=O)(=O)NCCO)c2)c2ccccc12 | inactive: 17.6% | 
Cc1ccc(C(=O)N2CCCCCC2)cc1Br |  | inconclusive [activator, partial curve]
COC(=O)[C@@]1(Cc2ccc(OC)cc2)[C@H]2c3cc(C(=O)N(C)C)n(CCc4ccccn4)c3C[C@H]2CN1C(=O)c1ccccc1 | inactive: 11.5% | 
S=C(c1ccc(N2CCCC2)cc1)N1CCCCC1 | inactive: -6.06% | 
COCCn1c(=O)c(-c2cccc(C#N)c2)nc2cnc(Oc3ccccc3)nc21 | inactive: 7.98% [at 0.457 µM] | 
Cn1c(=O)c2c(SCc3ccccn3)nc(C3CC3)nc2n(C)c1=O |  | inconclusive [activator, single point]
CCCCc1cc(=O)oc2cc(OCc3nn[nH]n3)c(Cl)cc12 |  | inconclusive [activator, partial curve]
O=C(Nc1ccccc1)N1CCN(Cc2ccc3c(c2)OCO3)CC1 |  | inconclusive [activator, single point]
NC(N)=N/N=C\c1ccc(O)c(C(=O)O)c1 | inactive: 11.7% [at 11.4 µM] | 
O=[N+]([O-])c1ccc2c(c1)Cc1cc(N=Cc3ccc4c(c3)OCO4)ccc1-2 | inactive: -13.2% [at 11.4 µM] | 
CN(CCCNC(=O)c1cn(C)c2ccc(S(=O)(=O)N(C)C)cc2c1=O)c1ccccc1 | inactive: 1.08% | 
CC1(C)CC(=O)c2cc(OCC(=O)NCCCN3CCN(c4ccccc4F)CC3)ccc2O1 |  | inconclusive [activator, single point]
Cc1ccc(C(=O)N2CCCC(c3nc4c(nnn4Cc4ccccc4)c(=O)[nH]3)C2)cc1 (stereo not given) |  | active: 25.1 µM
CC(=O)OCC1OC(c2ccc(C(C)=O)cc2)C=CC1OC(C)=O (stereo not given) | inactive: 1.65% [at 11.4 µM] | 
CCn1nnc(-c2ccccc2NC(=O)c2cc(OC)cc(OC)c2)n1 |  | inconclusive [activator, partial curve]
c1cncc(CNc2nc(-c3ccoc3)nc3ccccc23)c1 | inactive: -1.69% | 
COC(=O)c1sccc1NC(=O)CSc1nnnn1-c1ccccc1F |  | inconclusive [activator, single point]

Compound | activation | Potency
Cc1ccc(Cn2c(CN3CCOCC3)nc3c2c(=O)[nH]c(=O)n3C)cc1 | inactive: 3.98% | 
Cc1cccc(-n2ncc3c(NCc4cccs4)ncnc32)c1 | inactive: 2.2% | 
COc1ccc(CN2CCNC(=O)C2CC(=O)O)c(OC)c1 (stereo not given) |  | inconclusive [activator, single point]
Cc1cnc(NC(=O)COc2ccccc2Cl)s1 | inactive: 2.06% | 
CCCCOc1ccc(C(O)(CCC)CCN2CCOCC2)cc1 (stereo not given) |  | inconclusive [activator, partial curve]
CCC(=O)Nc1cccc(-c2nc3ccccc3o2)c1 | inactive: 4.25% | 
O=C(OCc1ccccc1)c1ccc(Br)o1 |  | inconclusive [activator, partial curve]
CCOC(=O)c1c(NC(=O)C(F)(OC)C(F)(F)F)sc2c1CCN(C)C2 (stereo not given) |  | inconclusive [activator, single point]
CCc1ccc2nc3c(c(C(=O)O)c2c1)CCC3 |  | inconclusive [activator, single point]
COc1ccc(CCNc2ncnc3c2oc2ccccc23)cc1OC |  | active: 12.6 µM
Nc1nnc(SCCN2C(=O)c3ccccc3S2(=O)=O)s1 |  | inconclusive [activator, single point]
CCOc1ccc(CCNC(=O)CN2CCN(Cc3ccc(F)cc3)C2=O)cc1OCC |  | inconclusive [activator, partial curve]
O=C(CSc1nc2ccccc2nc1SCC(=O)N1CCCCC1)N1CCCCC1 | inactive: 17.3% | 
CCOC(=O)C1C(=O)N(C(=O)c2cncc(Br)c2)CC1c1ccccc1 (stereo not given) |  | inconclusive [activator, single point]
CCCn1c(-c2cccs2)nc2ccccc21 |  | inconclusive [activator, partial curve, poor fit]
Cc1ccnc(NC(=O)Nc2ccc(F)cc2)c1 | inactive: 18.5% | 
Cc1ccc2cc(CN(Cc3ccco3)C(=O)c3cccs3)c(=O)[nH]c2c1 |  | inconclusive [activator, single point]
CCOc1ccc(-c2nc(C#N)c(N3CCOCC3)o2)cc1 | inactive: 14% | 
O=C(/C=C/c1ccc(O)c(O)c1)O[C@@H](C(=O)O)[C@@H](OC(=O)/C=C/c1ccc(O)c(O)c1)C(=O)O | inactive: -2.63% | 
c1ccc2oc(-c3nn4c(Cn5cnc6ccccc65)nnc4s3)cc2c1 |  | inconclusive [activator, partial curve, poor fit]
CCOC(=O)c1nc(-c2ccc3c(c2)OCO3)[nH]c1C | inactive: 20.4% | 
Cc1onc(-c2ccccc2Cl)c1C(=O)N1CCN(c2cccc(Cl)c2)CC1 |  | inconclusive [activator, single point]
Cc1csc(=NC(=O)c2ccccc2)n1Cc1ccco1 |  | inconclusive [activator, single point]
CCOC(=O)C1=C(N)n2c(s/c(=C/c3ccco3)c2=O)=C(C(=O)OC)C1c1ccco1 (stereo not given) | inactive: 10.4% | 
COc1ccc2[nH]c3nc(SC(C)C)nnc3c2c1 | inactive: 8.93% | 
